Source: the RNAGym collection of RNA variant scans (doi:10.7554/elife.90254)
Read counts are not given, so values of variants with three or more changes are uncertain.

B1: OR4K15 (parent)
chain: GUUAACGGUCAUAGGCCAUGGAAACUAGGAGCACCAUUUCGCUGCCAGUGAAGAAAUGAACAAAGAAAAUCUGGGCCAGGCAGGCAUCAAAAGAAAUAGUCUUGCGCUCAACCAGAAAGUCUGUAAUCAUUUUAAGGGUA

Variants of: B1
Experiment: self-cleavage, relative activity (ratio to wild type); higher = more cleavage; in vitro, sequencing; the parent is a self-cleaving ribozyme

| Variant | self-cleavage |
| --- | --- |
| GUUAACGGUCAUAGGCCAUGGAAGCUAGGAGCACCAUUUCGCUGCCAGUGAAGAAAUGAACAAAGAAGGUCUGGGCCAGGCAGGCAUCAAAAGAAAUAGCCUUGCGCUCAACCAGAAAGUCUGUAAUCAUUUUAAGGGUA [A24G A68G A69G U100C] | 1.37 |
| GUUAACGGUCAUAGGCCAUGGAAGCUAGGAGCACCAUUUCGCUGCCAGUGAAGAAAUGAACAAAGAGAAUCUGGGCCAGGCAGGCAUCAAAAGAAAUAGUCCUGCGCUCAACCAGAAAGUCUGUAAUCAUUUUAAGGGUA [A24G A67G U102C] | 1.26 |
| GUUAACGGUCAUAGGCCAUGGAAGCUAGGAGCACCAUUUCGCUGCCAGUGAAGAAAUGAACAAAGGAAUUCUGGGCCAGGCAGGCAUCAAAAGAAAUAGUCUUGCGCUCAACCAGAAAGUCUGUAAUCAUUUUAAGGGUA [A24G A66G A69U] | 1.31 |
| GUUAACGGUCAUAGGCCAUGGAAGCUAGGAGCACCAUUUCGCUGCCAGUGAAGAAAUGAACAGAGAAAAUCUGGGCCAGGCAGGCAUCAAAAGAAAUAGUCUUGCGCUCAACCAGAAAGUCCGUAAUCAUUUUAAGGGUA [A24G A63G U122C] | 0.57 |
| GUUAACGGUCAUAGGCCAUGGAAGCUAGGAGCACCAUUUCGCUGCCAGUGAAGAAAUGCACAAAGAAAAUCUGGGCCAGGCAGGCAUCAAAAGAAAUAGUCCUGCGCUCAACCAGAAAGUCUGUAAUCAUUUUAAGGGUA [A24G A59C U102C] | 0.96 |
| GUUAACGGUCAUAGGCCAUGGAAGCUAGGAGCACCAUUUCGCUGCCAGUGAAGAAAUGAACAAAGUAAAUCUGGGCCAGGCAGGCAUCAAAUGAAAUAGUCUUGCGCUCAACCAGAAAGUCUGUAAUCAUUUUAAGGGUA [A24G A66U A92U] | 1.5 |
| GUUAACGGUCAUAGGCCAUGGAAGCUAGGAGCACCAUUUCGCUGCCAGUGAAGAAGUGAACAAAGAAAAUCUGGGCCAGGCAGGCAUCAAAAGAAAUAGUCUAGCGCUCAACCAGAAAGUCUGUAAUCAUUUUAAGGGUA [A24G A56G U103A] | 0.37 |
| GUUAACGGUCAUAGGCCAUGGAAGCUAGGAGCACCAUUUCGCUGCCAGUGAAGAAAUGAACAAUGAAAAUCUGGGCCAGGCAGGCAUCAGAAGAAAUAGUCUUGUGCUCAACCAGAAAGUCUGUAAUCAUUUUAAGGGUA [A24G A64U A90G C105U] | 0.34 |
| GUUAACGGUCAUAGGCCAUGGAAGCUAGGAGCACCAUUUCGCUGCCAGUGAAGAAAUGAACGAAGAAAAUCUGGGCCAGGCAGGCAUCAAAAGAAAUAGUCCUGCGCUCAACCAGAAAGUCUGUAAUCAUUUUAAGGGUA [A24G A62G U102C] | 1.74 |
| GUUAACGGUCAUAGGCCAUGGAAGCUAGGAGCACCAUUUCGCUGCCAGUGAAGAAAUGGACAAAGAAAAUCUGGGCCAGGCAGGCAUCAAAAGAAAUAGUCCUGCGCUCAACCAGAAAGUCUGUAAUCACUUUAAGGGUA [A24G A59G U102C U130C] | 0.35 |
| GUUAACGGUCAUAGGCCAUGGAAGCUAGGAGCACCAUUUCGCUGCCAGUGAAGAAAUGAACAAAGAGAAUCUGGGCCAGGCAGGCAUCAAAAGAAAUAGUCUUGCGCUCAACCAGAGAGUCCGUAAUCAUUUUAAGGGUA [A24G A67G A117G U122C] | 1.96 |
| GUUAACGGUCAUAGGCCAUGGAAGCUAGGAGCACCAUUUCGCUGCCAGUGAAGAAAUGAACGAAGAAAGUCUGGGCCAGGCAGGCAUCAAAUGAAAUAGUCUUGCGCUCAACCAGAAAGUCUGUAAUCAUUUUAAGGGUA [A24G A62G A69G A92U] | 1.32 |
| GUUAACGGUCAUAGGCCAUGGAAGCUAGGAGCACCAUUUCGCUGCCAGUGAAGAAAUGGACAAAGAAAAUCUGGGCCAGGCAGGCAUCAAAAGAAAUAGUCUUGCGCUCAACCAGAAAGUCUGCAAUCAUUUUAAGGGUA [A24G A59G U124C] | 0.56 |
| GUUAACGGUCAUAGGCCAUGGAAGCUAGGAGCACCAUUUCGCUGCCAGUGAAGAGAUGAACAAAGAAAAUCUGGGCCAGGCGGGCUUCAAAAGAAAUAGUCUUGCGCUCAACCAGAAAGUCUGUAAUCAUUUUAAGGGUA [A24G A55G A82G A86U] | 0.39 |
| GUUAACGGUCAUAGGCCAUGGAAGCUAGGAGCACCAUUUCGCUGCCAGUGAAGAUAUGAACAAAGAAAAUCUGGGCCAGGCAGGCAUCAAAAGGAAUAGUCUUGCGCUCAACCAGAGAGUCUGUAAUCAUUUUAAGGGUA [A24G A55U A94G A117G] | 1.82 |
| GUUAACGGUCAUAGGCCAUGGAAGCUAGGAGCACCAUUUCGCUGCCAGUGAAGAAAUGAUCAAAGAAAAUCUGGGCCAGGCAGGCACCAAAAGAAAUAGUCUUGCGCUCAACCAGAAAGUCUGUAAUCAUUUUAAGGGUA [A24G A60U U87C] | 1.07 |
| GUUAACGGUCAUAGGCCAUGGAAGCUAGGAGCACCAUUUCGCUGCCAGUGAAGAAAUGAACGAAGAAAGUCUGGGCCAGGCAGGCAUCAGAAGAAGUAGUCUUGCGCUCAACCAGAAAGUCUGUAAUCAUUUUAAGGGUA [A24G A62G A69G A90G A96G] | 1.07 |
| GUUAACGGUCAUAGGCCAUGGAAGCUAGGAGCACCAUUUCGCUGCCAGUGAAGAAAUGAACAAGGAAAAUCUGGGCCAGGCAGGCAUCAAAAGAAAUAGUCCUGCGCUCAACCAGAGAGUCUGUAAACACUUUAAGGGUA [A24G A64G U102C A117G U127A U130C] | 2.54 |
| GUUAACGGUCAUAGGCCAUGGAAGCUAGGAGCACCAUUUCGCUGCCAGUGAAGAAAUGAACUAAGAAAAUCUGGGCCAGGCAGGCAUCAAAAGAAAUAGUCUUGCGCUCAACCAGAAAGUCUGUAAUCAUUUUAAGGGUU [A24G A62U A140U] | 1.17 |
| GUUAACGGUCAUAGGCCAUGGAAGCUAGGAGCACCAUUUCGCUGCCAGUGAAGAAAUGAACAAAGGUAAUCUGGGCCAGGCAGGCAUCAAAAGAAAUAGUCUUGCGCUCAACCAGAAAGUCCGUAAUCAUUUUAAGGGUA [A24G A66G A67U U122C] | 1.51 |
